Read counts are not given, so values of variants with three or more changes are uncertain.
B1: LINE1-full (parent)
chain: UACGUAGGUGGUUUUCCCCUGAUAGUGCUAAGGGGGCCUGGAAGUUUGGACUGGGCAGAGCUCAACACAGCGUGGCAAAGUGGCUGUGGCUAGACUGCCUCUCUGGAUUCCUCGUCACUCAGCAGGGCAUCUCUGAGAGAAAUGCC

Variants of: B1
Test: self-cleavage, relative activity (ratio to wild type); higher = more cleavage; in vitro, sequencing; the parent is a self-cleaving ribozyme

Variant | self-cleavage
A31U A64U A77U A124G | 0.2
A30U G54A U85G | 0.12
A31U C101U U119C | 0.97
G32A U96C U130C | 0.15
G32C A57G A77U A94G U130C A138G | 0
A30G U62C U96C A142G | 0
A30U A65G U134A | 0.04
A31G A57U A67G | 0.25
A31U U39A U87A | 0.14
A30G U81C A142G | 0.92
G32C A92G U130C U143C | 0.22
A31U C99U U119C C120U | 1.53
A31G U73A U102G A117U A124G | 0
A30G G48A G83U | 0.72
G32U G33A U112C | 0.79
A30G U87A U91A | 0.17
U29C C113A A124G | 1.94
U29C U119C A141G | 0
A31C A59U A67G G139U | 0.29
A30G A57G U87C A138G | 0.66
U29G A50U U102A U115C U130C | 1.84
A31U A43G U87C A136G | 1.31
U29C A77G C131U | 1.84
A30U U39C A77G U91C A142G | 1.53

Variant | self-cleavage
A30U A67G A79U | 0.56
A30G A94G A117G | 1.02
A30G U73C U143A | 1.31
A31U G36C U39C A136U | 1.2
A30G G32A A94G | 0.57
U29C U47A A136G | 1.67
G32A A57G U143C | 0.77
A30G A79U U81C | 1.84
A30G A69G U130A | 1.05
A30G A31C U39C A138U A140G | 0.48
A31U U46C G122U | 1.11
A30G A43G U130A | 1.41
A30U U47C C101U | 1.09
G32A A129U C146U | 1.26
G32A U47C A136C | 1.67
A30G A50G G53A U134A A140G | 0
A31U G74A C120A | 0.98
A30G U45C A69U A142G | 0.28
G32A U39A U62C A107G | 0.18
G32A A65G U108C | 0.1
U29C A78G A140G | 0.44
A31G G35U U112C | 0.86
A30G U39A U132C | 1.31
G32U A42G A69U A141G | 0.12

Variant | self-cleavage
A31G U39A U115C | 1.1
U29C U109C A117G | 1.53
A30U U102C U132C | 1.6
A30G G54A U132C C145A | 0.75
A31U A124G U143C | 0.33
A30U A77G A117C | 0.4
A30U G55A A67G | 0.02
A31U A59G C113U A117U U119C | 0.13
A31G U47A A78U U108G A124U | 1.29
A30G U100C A129G A138U | 2.3
A31G A64U G83A U87C | 0.18
A31U C38U A42U U85C U91C | 0.26
A30U A65U C111U | 0.23
U29C G106A U132C | 2.08
U29C U47C A78U | 2.81
A31G A59G A69G U108C G126A | 0.38
A31U G83A A136G | 0.82
A31U G58A A77G G97A | 0.02
A30G U85A U87C | 0.27
A30G A67G U112C U115A | 0
A31G A43G A64U A67G | 0.17
A30U A57G U132C | 0.78
G32A A64G U108C | 0
A31G A43G A129G | 2.3

Variant | self-cleavage
A31G A65G U134C | 0.84
A31C A57U A107G | 0.49
G32A U62C U132C A138G | 0.06
A30G A65U A121C | 0.49
A30U G34A A42G A67G A77U G122A | 0.31
G32A A107G U108C | 0.77
U29C U45A U96A | 0.09
A31G G72A U115A A138G | 1.05
A30G A78G U81C | 0
A30G A43U A79G | 1.15
A30G G58A A64G A117G | 0.79
A31G G55C A107U U112C C128A | 0.07
U29C G53A A64G A124G | 0.4
G32U C63U U81C A117U | 0.32
G32A A77G A124G | 1.91
A30G A43G A50G C51U U91A U100A C120U | 0.58
G32A A57U U73A U102C A141G | 0.06
A30G A42G U112C | 1.53
U29C C56U A136G | 0.38
A31G U46C U47A | 1.29
A31U U45C U134C | 2
A31U U46C A64U U81C C99U | 0.37
A30G U46A A94G | 0.11
A30G A64G A92G A138G | 0

Variant | self-cleavage
U29C U45C U73A G88A U130C | 0.05
G32A G49A A107G A140G A141G | 1.31
A30G G32A A78G U85C | 0.26
A30G U45C A142U | 1.21
G32A A57G G89A | 0
A30G A64G A78G | 0
G32A U73G U134C | 0.95
G32A U87C A138U | 0.16
A31U U39C U108C U132C | 1.29
A30G U39C G93A U115A | 0.07
A30G U96A U115A A124C | 0.13
A30G U52A A64C A77U U115C A138G | 0.41
A30G C37U A77U G122A U134C | 1.09
G32A A59U U85C C116U A141G | 0.1
A31U G35A A43G A107G U112A A141G | 2.2
A30G A50U A92U G114A | 0.68
G32C G34A A43U A57G U108A G122U | 1.16
A30U U47A C145G | 0.65
U29C A78G A124G | 0.86
A30G A121U A138U | 1.06
U29C A77G U85A | 0.41
A30G A31G U45C A121G | 0.77
A31G U62C A78G U91C | 0
U29C A67G A121U | 0.14

Variant | self-cleavage
A30G U39C G41U U47A A67G | 0.65
A30U G34A A50G | 1.12
A30G U47C A67G | 0
G32C U81A U115C | 2.03
U29G C113A A124G A136G | 1.11
G33A A64G A129U | 0.14
G32A U108A A124G U130C | 1.02
A31G A43G A78G A121U A142G | 0
U29C U39A A129G | 1.1
U29C U45A A59G A69G | 0
A31G A42U U109A U115A A140U | 1.21
A30G C37G A77G | 2.51
A30G G34A A50G | 0.52
A31G A59G A121G | 0.95
A31G A78G A79G | 0.26
A30G U115C U130A | 1.41
A30G G33U A64G G74A U87A U96A U104A | 0.06
A30G A43U A50G | 0.63
U29C U45C A79G | 1.15
G33A A42G U62C A69U U108C A121G | 0
U29C A79G U134A | 0.38
A30U U39A A42G U62C A65C | 0
A30G U47C A65G U100C G125A | 0
A30G A64U U132C | 0.33

Variant | self-cleavage
U29C U39C U87A | 0.04
A30U U73C U87A | 0.21
A30U U115C A124G A136U | 2
A30U U45C U52A U62C A69U A142U | 0.06
A31G A65G C98U U102A | 0
A31G A59C A94U | 0.1
A31G A42U A59G A79G | 0.39
A30G A77G A107G | 1.31
A30G A64U U100C | 0.57
G32U G49A U119C A129G | 1.23
A31G U73C U96G | 0
G32C U47C G55A A142G | 0.54
A30G U46G U62C | 0
A31U G125U A142G | 1.05
A30G A43G U112C | 0.73
A30C G34A U87C | 0.18
A30G G34A A77G U81C U112A | 0.77
G32A A107G G137U | 0
A30G A42G U45A U46C U119C | 0.8
A30U G49U U62C U87A | 0.06
G32A U39C A141G A142G | 1.01
U29C A67G A124G | 0
G32C C123U U143C | 0.9

Reference: the RNAGym collection of RNA variant scans (doi:10.7554/elife.90254)
